Assay results as given in article PMC3608554.
These are yes or no findings as the source states them, for the method shown. For some of these results: Binding seen in cells or lysates may run through a third protein. Some results given as binding are weak or reduced against the parent protein; the word gives no strength. For some of these results: Tags and fused reporters may be left off the sequences shown. Values belong to the binder of their own block, whether it stands above or below them.

Key:
PLCg2-V5 (human) [1] = target: T1, PLCg2-V5 (human) (UniProt P16885); assay: condition: only co-expressed with kinase dead BLK-KL, no active kinase; co-IP; HEK293 co-transfected with Flag-BANK1, PLCg2-V5 and kinase dead BLK-KL-V5 (K269L); IP anti-PLCg2, blot anti-BANK1
T1 sequence: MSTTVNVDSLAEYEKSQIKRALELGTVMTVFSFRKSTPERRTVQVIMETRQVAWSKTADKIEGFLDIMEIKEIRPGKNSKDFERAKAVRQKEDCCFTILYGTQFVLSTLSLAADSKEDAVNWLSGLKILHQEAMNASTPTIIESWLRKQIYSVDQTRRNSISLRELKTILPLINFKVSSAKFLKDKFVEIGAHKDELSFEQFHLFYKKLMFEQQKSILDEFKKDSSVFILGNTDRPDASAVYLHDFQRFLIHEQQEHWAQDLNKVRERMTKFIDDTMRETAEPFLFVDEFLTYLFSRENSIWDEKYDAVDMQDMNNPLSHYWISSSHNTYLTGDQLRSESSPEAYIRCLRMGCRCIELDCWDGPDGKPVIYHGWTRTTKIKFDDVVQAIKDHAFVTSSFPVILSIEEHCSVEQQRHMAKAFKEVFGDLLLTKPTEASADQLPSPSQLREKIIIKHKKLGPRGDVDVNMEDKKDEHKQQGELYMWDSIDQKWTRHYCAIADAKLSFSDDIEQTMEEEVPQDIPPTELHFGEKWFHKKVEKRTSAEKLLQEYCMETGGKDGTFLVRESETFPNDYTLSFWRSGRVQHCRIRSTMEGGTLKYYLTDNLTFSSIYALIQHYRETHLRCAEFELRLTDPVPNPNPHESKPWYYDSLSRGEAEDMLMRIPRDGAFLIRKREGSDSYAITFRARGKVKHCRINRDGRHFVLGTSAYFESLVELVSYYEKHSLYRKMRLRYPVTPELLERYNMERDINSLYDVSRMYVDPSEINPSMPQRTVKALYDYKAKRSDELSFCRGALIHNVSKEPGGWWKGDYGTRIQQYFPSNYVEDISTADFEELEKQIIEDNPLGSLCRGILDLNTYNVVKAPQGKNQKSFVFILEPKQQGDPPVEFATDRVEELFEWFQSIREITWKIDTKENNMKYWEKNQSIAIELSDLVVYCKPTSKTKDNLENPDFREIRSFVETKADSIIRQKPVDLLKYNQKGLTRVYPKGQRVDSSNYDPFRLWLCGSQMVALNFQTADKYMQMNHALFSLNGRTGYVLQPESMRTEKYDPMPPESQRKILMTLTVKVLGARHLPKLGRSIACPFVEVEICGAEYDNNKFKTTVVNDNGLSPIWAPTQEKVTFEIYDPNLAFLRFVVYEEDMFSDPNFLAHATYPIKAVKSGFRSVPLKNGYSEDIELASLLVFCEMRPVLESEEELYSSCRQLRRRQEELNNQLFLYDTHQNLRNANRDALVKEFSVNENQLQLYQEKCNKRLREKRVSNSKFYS

PLCg2-V5 (human) [2] = target: T1, PLCg2-V5 (human); assay: co-IP; HEK293 cells expressing BANK1 and PLCg2 only, no kinase co-expressed
PLCg2-V5 (human) [3] = target: T1, PLCg2-V5 (human); assay: condition: only co-expressed with GFP, no active kinase; co-IP; HEK293 co-transfected with Flag-BANK1, PLCg2-V5 and GFP-V5 (no kinase activity); IP anti-PLCg2, blot anti-BANK1
[4] = target: T2, PLCg2, endogenous in human B-cell lines (human (endogenous in Daudi)) (UniProt P16885); assay: proximity ligation; in situ PLA (Duolink II), endogenous proteins in fixed Daudi and RL cells (also an EBV-transformed B cell line) stimulated with anti-human IgM F(ab')2; rabbit anti-BANK1 and mouse anti-PLCg2; maximum at 1 min, back to the initial level after 15-20 min; also in shControl and BLK-silenced Daudi cells
T2 sequence: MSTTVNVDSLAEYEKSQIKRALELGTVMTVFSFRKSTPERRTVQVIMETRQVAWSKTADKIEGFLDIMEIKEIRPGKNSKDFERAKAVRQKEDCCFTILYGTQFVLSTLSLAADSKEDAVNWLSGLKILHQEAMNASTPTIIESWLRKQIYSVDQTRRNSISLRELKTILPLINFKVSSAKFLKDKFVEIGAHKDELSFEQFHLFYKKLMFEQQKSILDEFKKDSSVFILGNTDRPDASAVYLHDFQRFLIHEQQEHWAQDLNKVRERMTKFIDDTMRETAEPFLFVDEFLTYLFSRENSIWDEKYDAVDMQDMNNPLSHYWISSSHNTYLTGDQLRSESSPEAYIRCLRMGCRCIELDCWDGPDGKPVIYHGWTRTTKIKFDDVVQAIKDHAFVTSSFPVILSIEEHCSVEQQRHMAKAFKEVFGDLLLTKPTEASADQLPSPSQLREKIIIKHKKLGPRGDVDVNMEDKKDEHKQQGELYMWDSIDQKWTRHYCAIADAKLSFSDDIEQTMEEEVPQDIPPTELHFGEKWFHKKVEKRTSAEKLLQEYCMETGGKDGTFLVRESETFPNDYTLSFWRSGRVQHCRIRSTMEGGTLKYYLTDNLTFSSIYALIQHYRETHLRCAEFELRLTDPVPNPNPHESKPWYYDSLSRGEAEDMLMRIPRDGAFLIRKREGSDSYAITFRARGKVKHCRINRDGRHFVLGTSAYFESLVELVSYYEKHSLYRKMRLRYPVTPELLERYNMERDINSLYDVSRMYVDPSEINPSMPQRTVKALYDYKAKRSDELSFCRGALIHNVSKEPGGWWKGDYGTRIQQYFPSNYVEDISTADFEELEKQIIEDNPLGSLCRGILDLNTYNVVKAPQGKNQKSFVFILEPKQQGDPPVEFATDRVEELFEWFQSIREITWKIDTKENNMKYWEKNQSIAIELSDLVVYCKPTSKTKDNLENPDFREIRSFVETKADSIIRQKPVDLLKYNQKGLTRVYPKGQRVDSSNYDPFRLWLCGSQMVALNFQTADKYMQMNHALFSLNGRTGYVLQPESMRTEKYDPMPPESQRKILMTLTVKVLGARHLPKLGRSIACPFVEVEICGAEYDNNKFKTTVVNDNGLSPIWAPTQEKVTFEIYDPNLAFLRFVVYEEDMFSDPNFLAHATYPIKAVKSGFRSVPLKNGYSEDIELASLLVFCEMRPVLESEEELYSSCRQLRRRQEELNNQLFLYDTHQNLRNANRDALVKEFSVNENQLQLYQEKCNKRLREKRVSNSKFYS

[5] = target: T2, PLCg2, endogenous in human B-cell lines (human (endogenous in Daudi)); assay: proximity ligation; in situ PLA (Duolink II), endogenous proteins in fixed non-stimulated Daudi and RL cells; rabbit anti-BANK1 and mouse anti-PLCg2
[6] = target: T2, PLCg2, endogenous in human B-cell lines (human (endogenous in Daudi)); assay: co-IP; endogenous proteins, Daudi cells stimulated with 10 ug/mL goat F(ab')2 anti-human IgM; 1% NP-40 lysate; IP anti-PLCg2 and blot anti-BANK1, or reverse IP anti-BANK1 and blot anti-PLCg2; also in shControl and BLK-silenced (shBLK) Daudi cells, where the association was reduced
[7] = target: T3, BANK1 N-terminal truncated form (aa 331–785), yeast two-hybrid bait (human) (UniProt Q8NDB2); assay: two-hybrid; screen by Hybrigenics; bait truncated BANK1 (aa 331-785), not autoactivating, against a human leukocyte and mononuclear cell library; 6x10^6 interactions tested
T3 sequence: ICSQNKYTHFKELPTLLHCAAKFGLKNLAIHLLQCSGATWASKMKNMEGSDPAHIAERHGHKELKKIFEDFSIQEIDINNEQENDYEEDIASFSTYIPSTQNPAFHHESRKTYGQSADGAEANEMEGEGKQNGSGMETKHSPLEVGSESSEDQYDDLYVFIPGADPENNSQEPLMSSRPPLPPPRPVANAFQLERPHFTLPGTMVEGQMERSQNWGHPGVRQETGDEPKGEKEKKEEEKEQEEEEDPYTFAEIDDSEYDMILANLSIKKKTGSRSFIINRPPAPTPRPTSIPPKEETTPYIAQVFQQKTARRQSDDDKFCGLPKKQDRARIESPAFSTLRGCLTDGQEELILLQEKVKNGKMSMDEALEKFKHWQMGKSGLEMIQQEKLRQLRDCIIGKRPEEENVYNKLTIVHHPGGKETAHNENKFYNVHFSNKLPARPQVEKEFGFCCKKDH

binding (PLCg2-V5 (human) [1]): no binding | binding (PLCg2-V5 (human) [2]): binds weakly | binding (PLCg2-V5 (human) [3]): no binding
B1: Flag-BANK1 full-length, expressed in HEK293 cells without an active kinase (protein, UniProt Q8NDB2 1-785)
chain: MLPAAPGKGLGSPDPAPCGPAPPGNTKDIIMIYEEDAEEWALYLTEVFLHVVKREAILLYRLENFSFRHLELLNLTSYKCKLLILSNSLLRDLTPKKCQFLEKILHSPKSVVTLLCGVKSSDQLYELLNISQSRWEISTEQEPEDYISVIQSIIFKDSEDYFEVNIPTDLRAKHSGEISERKEIEELSEASRNTIPLAVVLPTEIPCENPGEIFIILRDEVIGDTVEVEFTSSNKRIRTRPALWNKKVWCMKALEFPAGSVHVNVYCDGIVKATTKIKYYPTAKAKECLFRMADSGESLCQNSIEELDGVLTSIFKHEIPYYEFQSLQTEICSQNKYTHFKELPTLLHCAAKFGLKNLAIHLLQCSGATWASKMKNMEGSDPAHIAERHGHKELKKIFEDFSIQEIDINNEQENDYEEDIASFSTYIPSTQNPAFHHESRKTYGQSADGAEANEMEGEGKQNGSGMETKHSPLEVGSESSEDQYDDLYVFIPGADPENNSQEPLMSSRPPLPPPRPVANAFQLERPHFTLPGTMVEGQMERSQNWGHPGVRQETGDEPKGEKEKKEEEKEQEEEEDPYTFAEIDDSEYDMILANLSIKKKTGSRSFIINRPPAPTPRPTSIPPKEETTPYIAQVFQQKTARRQSDDDKFCGLPKKQDRARIESPAFSTLRGCLTDGQEELILLQEKVKNGKMSMDEALEKFKHWQMGKSGLEMIQQEKLRQLRDCIIGKRPEEENVYNKLTIVHHPGGKETAHNENKFYNVHFSNKLPARPQVEKEFGFCCKKDH

binding [4]: binds | binding [5]: binds weakly | binding [6]: binds
B2: BANK1, endogenous in human B-cell lines (protein, UniProt Q8NDB2 1-785)
chain: MLPAAPGKGLGSPDPAPCGPAPPGNTKDIIMIYEEDAEEWALYLTEVFLHVVKREAILLYRLENFSFRHLELLNLTSYKCKLLILSNSLLRDLTPKKCQFLEKILHSPKSVVTLLCGVKSSDQLYELLNISQSRWEISTEQEPEDYISVIQSIIFKDSEDYFEVNIPTDLRAKHSGEISERKEIEELSEASRNTIPLAVVLPTEIPCENPGEIFIILRDEVIGDTVEVEFTSSNKRIRTRPALWNKKVWCMKALEFPAGSVHVNVYCDGIVKATTKIKYYPTAKAKECLFRMADSGESLCQNSIEELDGVLTSIFKHEIPYYEFQSLQTEICSQNKYTHFKELPTLLHCAAKFGLKNLAIHLLQCSGATWASKMKNMEGSDPAHIAERHGHKELKKIFEDFSIQEIDINNEQENDYEEDIASFSTYIPSTQNPAFHHESRKTYGQSADGAEANEMEGEGKQNGSGMETKHSPLEVGSESSEDQYDDLYVFIPGADPENNSQEPLMSSRPPLPPPRPVANAFQLERPHFTLPGTMVEGQMERSQNWGHPGVRQETGDEPKGEKEKKEEEKEQEEEEDPYTFAEIDDSEYDMILANLSIKKKTGSRSFIINRPPAPTPRPTSIPPKEETTPYIAQVFQQKTARRQSDDDKFCGLPKKQDRARIESPAFSTLRGCLTDGQEELILLQEKVKNGKMSMDEALEKFKHWQMGKSGLEMIQQEKLRQLRDCIIGKRPEEENVYNKLTIVHHPGGKETAHNENKFYNVHFSNKLPARPQVEKEFGFCCKKDH

binding [7]: binds
B3: Saposin C, two-hybrid prey (domain or fragment, UniProt P07602 311-390)
chain: SDVYCEVCEFLVKEVTKLIDNNKTEKEILDAFDKMCSKLPKSLSEECQEVVDTYGSSILSILLEEVSPELVCSMLHLCSG
